Among the data in the RNAGym collection of RNA variant scans (doi:10.1101/gad.245936.114) are nonsense suppression values, retold here.

This sample is rich in variants without activity.

Sequences and labels used below:
B1: tRNA (parent)
chain: CUCUCGGUAGCCAAGUUGGUUUAAGGCGCAAGACUUUAAUUUAUCACUACGAAAUCUUGAGAUCGGGCGUUCGACUCGCCCCCGGGAGAUUUUUUCCUCGAGCAA

This series covers variants of B1. Nature of the series: nonsense suppression (GFP-seq) (ratio to wild type); higher = more function; SUP4oc tRNA, yeast GFP reporter sort-seq. The method, boiled down: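 Sorted GFP/RFP bins of yeast were each Illumina-sequenced with a phred ≥30 cutoff; the cells held a genome-integrated ochre-suppressor tRNA variant from a library with ~3% random mutations, a galactose-driven GFP ochre reporter, and RFP. Culture was in raffinose/galactose medium containing 80 mg/L adenine. Nonsense suppression, termed GFPSEQ, is the median GFP/RFP of the bins weighted by each variant's estimated cell share per bin, relative to the unmutated parent tRNA, for variants reaching ≥100 reads and ≥30 cells.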
Turning to U20G U21G A30U C68G, the nonsense suppression is no more than 0.026.
Regarding C1U C3G G86A, the nonsense suppression is no more than 0.026.
Turning to G25C C29G U55C G66A, the nonsense suppression was no more than 0.026.
With A13U C68U C79U, the nonsense suppression was no more than 0.026.
In the case of U8G A14U C83A, the nonsense suppression was no more than 0.026.
The value for U2C C27U A60U U70G was no more than 0.026; that for C5G C29G was no more than 0.026; that for U35G G59C was no more than 0.026.
As to G59C G84U, the nonsense suppression was no more than 0.026.
The value for G6A C11G U17A was no more than 0.026; that for G7U U63C was no more than 0.026; that for G18U U22G A31C G73A A74U was no more than 0.026.
Regarding U17G A54U C64G A89U, the nonsense suppression was no more than 0.026.
Regarding U76A A87G, the nonsense suppression came to 0.0534.
For U63G C82U, the nonsense suppression came out at 0.0882.
As for C3U A13C U16C C29U A31C G61U, the nonsense suppression is no more than 0.026.
Consider A60C G69A, for which the nonsense suppression is no more than 0.026.
Consider C11U C12A, for which the nonsense suppression was no more than 0.026.
The value for C3A C34G was no more than 0.026.
With A23U A30C C81U G84A, the nonsense suppression was no more than 0.026.
With C5A U70C the figure was no more than 0.026.
In the case of G19C U21A C27U, the nonsense suppression is no more than 0.026.
As to C12U C64G, the nonsense suppression is no more than 0.026.
As to U55C G61U G84C, the nonsense suppression was no more than 0.026.
On to U63A C72U, for which the nonsense suppression worked out at 0.133.
For the variant C5U U22G, the nonsense suppression is no more than 0.026.
Consider U8A C11G A24G C56U, for which the nonsense suppression is no more than 0.026.
Regarding G15C U16A, the nonsense suppression was no more than 0.026.
Turning to C3U U16G C56G G69U, the nonsense suppression was no more than 0.026.
As to G32C C80A, the nonsense suppression was no more than 0.026.
For the variant G6A U20G, the nonsense suppression was no more than 0.026.
A24U G67U: the nonsense suppression is no more than 0.026.
With G6C U22G U35A C79A the figure was no more than 0.026; with C12A A24G C34G U63A C81A, no more than 0.026.
For the variant C1U A24G U76G, the nonsense suppression was no more than 0.026.
As to C27G G67C U70A U76A, the nonsense suppression was no more than 0.026.
Regarding G25C U55C A60U, the nonsense suppression is no more than 0.026.
With U2A U16A G65A U76C, the nonsense suppression is no more than 0.026.
With U57G G88A, the nonsense suppression was no more than 0.026.
U35C A89C: the nonsense suppression is no more than 0.026.
Consider U21C C56G G61U A62U, for which the nonsense suppression was no more than 0.026.
For C1U G85C, the nonsense suppression was no more than 0.026.
Regarding U8G U20G G61A C68U C75A U76C G88U, the nonsense suppression is no more than 0.026.
On to G19A G59A C64U, for which the nonsense suppression was no more than 0.026.
Take C12U G67C A74C: the nonsense suppression is no more than 0.026.
G19U U22G A30C U57C A87G: the nonsense suppression is no more than 0.026.
Turning to U70G G78A, the nonsense suppression is no more than 0.026.
For the variant A30C C56A G73C, the nonsense suppression is no more than 0.026.
Turning to C12G U17A A62G, the nonsense suppression is no more than 0.026.
With A23C C34U A87G the figure was no more than 0.026; with G18A C79A, no more than 0.026.
As to A14G A24C G32A A74G, the nonsense suppression is no more than 0.026.
In the case of U16G A54U G69C U76C C81U, the nonsense suppression is no more than 0.026.
For C72U U76A C81G A89G, the nonsense suppression is no more than 0.026.
For G7U U22A, the nonsense suppression was no more than 0.026.
The value for G7A A54C C64A was no more than 0.026; that for A9C A31G G84U A89C was no more than 0.026.
For the variant U16G U71G G78U, the nonsense suppression is no more than 0.026.
For A31U G88A, the nonsense suppression was no more than 0.026.
Regarding G26C A33G U76G, the nonsense suppression was no more than 0.026.
With A62G C72G the figure was no more than 0.026.
With G7U A30U U55A the figure was no more than 0.026; with A13C C72U, 0.23.
G6A U16A U35A: the nonsense suppression was no more than 0.026.
For G10A A14G A31U G66C, the nonsense suppression is no more than 0.026.
C3A C72A: the nonsense suppression is no more than 0.026.
For A24G A54G G67A, the nonsense suppression is no more than 0.026.
In the case of C5U G61A, the nonsense suppression came out at 0.0314.
Regarding A14U G15U A23U C68G, the nonsense suppression was no more than 0.026.
For the variant C29U A54U G61C A62U, the nonsense suppression was no more than 0.026.
Turning to A23C A54G G78C C81G, the nonsense suppression is no more than 0.026.
Consider A13G U20A U55A G61C, for which the nonsense suppression was no more than 0.026.
Regarding G15U C64U G69C, the nonsense suppression was no more than 0.026.
A30G A62U U63A C68G G73C: the nonsense suppression was no more than 0.026.
For U16A A24U G28C C34A G67A, the nonsense suppression is no more than 0.026.
On to C34G U71A G78C G85A, for which the nonsense suppression was no more than 0.026.
As to C27G U57C G86C, the nonsense suppression is no more than 0.026.
Consider G19A G78C, for which the nonsense suppression is no more than 0.026.
With G66A C68A the figure was no more than 0.026.
The value for A31G G65A was no more than 0.026; that for C27U A54U G61A was no more than 0.026.
In the case of C29G A54C C72G, the nonsense suppression was no more than 0.026.
With C34A C79G G88A the figure was no more than 0.026; with G25C C68A U70A, no more than 0.026.
The value for U2G U55A C77G was no more than 0.026; that for U8A A60U G78A was no more than 0.026; that for G28A C34A was no more than 0.026.
With A23U C80G G84C the figure was no more than 0.026; with G6A G18U G28A C34U, no more than 0.026.
For U22G A60C G86C, the nonsense suppression is no more than 0.026.
Turning to U4G A30U G67U C75U G88C A89G, the nonsense suppression was no more than 0.026.
C11G C29U G78A: the nonsense suppression is no more than 0.026.
With G19C U57A A62C the figure was no more than 0.026; with A24U A30G, 0.148; with U4C U8C, no more than 0.026.
As for G15U U17C C34U, the nonsense suppression is no more than 0.026.
For the variant U55A G69U U71A, the nonsense suppression is no more than 0.026.
In the case of U22A G61C, the nonsense suppression is 0.203.
In the case of G6C G67U U71A, the nonsense suppression is no more than 0.026.
For the variant U8C A9C G25C G28A A31U C68U U76C, the nonsense suppression is no more than 0.026.
For the variant U17A G32A, the nonsense suppression was no more than 0.026.
Turning to A74U G84C, the nonsense suppression was no more than 0.026.
Turning to C3G A62G A74G C75A, the nonsense suppression was no more than 0.026.
Consider U16G G86C, for which the nonsense suppression is no more than 0.026.
For U21C U76A, the nonsense suppression was no more than 0.026.
On to U21G G66C C68A U70G, for which the nonsense suppression is no more than 0.026.
With A30U U58A C64A the figure was no more than 0.026.
The value for U2C C29A U58G G59A was no more than 0.026; that for U17C A87C was no more than 0.026.
Consider G19U A33G C34G U58A G65C U70C U71C, for which the nonsense suppression was no more than 0.026.
C1A G18U A54C G88C: the nonsense suppression is no more than 0.026.
As to U8G G86A, the nonsense suppression was no more than 0.026.
With U57C G59U the figure was no more than 0.026; with G7U G73C, no more than 0.026; with C3U U17G G28U U63A U70G A74U, no more than 0.026.
With C27G U57C, the nonsense suppression is no more than 0.026.
On to U8A G66C G73C C79A A89G, for which the nonsense suppression was no more than 0.026.
With G7U G26C U71G C82G the figure was no more than 0.026.
As for C29U U35C U55A, the nonsense suppression was no more than 0.026.
For G15U G25C G73C, the nonsense suppression is no more than 0.026.
The value for C3A G26A G86C was no more than 0.026; that for G10A C12U G18U was no more than 0.026.
The value for A14U G61C C79U was no more than 0.026.
Consider C11A C34G, for which the nonsense suppression was no more than 0.026.
Turning to C12U A89G, the nonsense suppression is no more than 0.026.
Consider A9C U63C, for which the nonsense suppression was 0.202.
A23U G78C: the nonsense suppression was no more than 0.026.
On to G28A U71C, for which the nonsense suppression is no more than 0.026.
Turning to G10C A14C A60C, the nonsense suppression was no more than 0.026.
With G73C C79U, the nonsense suppression is no more than 0.026.
The value for U22G U76A C83A was no more than 0.026; that for G10C U57C was no more than 0.026.
Take A62C G78C: the nonsense suppression was no more than 0.026.
A13C C82A: the nonsense suppression was no more than 0.026.
With A13G G66A A89U the figure was no more than 0.026; with A60U C72A, no more than 0.026.
As for G15C U20C A33U, the nonsense suppression is no more than 0.026.
In the case of U76C G78A, the nonsense suppression turned out to be 0.0382.
For U16G U76G G86C, the nonsense suppression was no more than 0.026.
With G65C U71A the figure was no more than 0.026.
As to G7C A23U C34G U63A C75A, the nonsense suppression is no more than 0.026.
As for G7U C12A G15A C83G, the nonsense suppression is no more than 0.026.
As to U2A U58A, the nonsense suppression is no more than 0.026.
On to C5A A14U G88U, for which the nonsense suppression was no more than 0.026.
On to A14C A24G A30U G66A C77A G86U, for which the nonsense suppression is no more than 0.026.
In the case of U2G C82U, the nonsense suppression was no more than 0.026.
Regarding G15C G67C G88U, the nonsense suppression is no more than 0.026.
Consider A30U C64G, for which the nonsense suppression was no more than 0.026.
The value for U57A C79U A87C was no more than 0.026; that for U16C G61A U63A was 0.186.
Regarding A13U C75A, the nonsense suppression is 0.866.
Turning to G15U A74G G86A, the nonsense suppression is no more than 0.026.
With C75G C77G, the nonsense suppression is no more than 0.026.
As for A24U G86U, the nonsense suppression was no more than 0.026.
C27U A87C: the nonsense suppression was no more than 0.026.
On to G10A U16G U76C, for which the nonsense suppression is no more than 0.026.
As to U57A U70A G86A, the nonsense suppression was no more than 0.026.
Consider G6C A14U G78U C79G, for which the nonsense suppression was no more than 0.026.
The value for U2G U58A was no more than 0.026; that for C1A G7C A54C C80A was no more than 0.026; that for A54G U63C was no more than 0.026.
As for U17G U21G G32U G61C, the nonsense suppression was no more than 0.026.
With C1G U57A C83A the figure was no more than 0.026; with C12G G28U C72G, no more than 0.026.
On to C5G U58G U76A, for which the nonsense suppression is no more than 0.026.
As for A14U G61C G69C C80A G85A, the nonsense suppression was no more than 0.026.
C1G A14G C72A: the nonsense suppression was no more than 0.026.
